{"source": "PubChem BioAssay AID485364", "about": "(National Center for Advancing Translational Sciences (NCATS), 2010)", "note": "Among all 360,000 compounds or so, about 11,000 (3.1%) were called active. This list was built around the results that the source calls inconclusive (neither active nor inactive); the mix of calls is not that of the screen. The call rests on the fitted dose curve; in most records, active means well fitted inhibition curve with a large enough effect; inconclusive means small, poorly fitted or top-dose-only effect; inactive means no such curve, though single readings can be large or run the other way. No potency is given beside an inconclusive call; the fits are too rough. On the % scale 0 is the no-effect control and ±100 the full control effect; potency means the concentration at half of the fitted maximal effect; tags describe the fitted curve by direction and shape.", "data": [{"target": "Schistosoma mansoni thioredoxin glutathione reductase (TGR) (UniProt Q962Y6)", "experiment": "qHTS Assay for the Inhibitors of Schistosoma Mansoni Peroxiredoxins; further: nearly all actives have a fitted effect of over 60% in size", "settings": "purified TGR, DTNB reduction, TNB absorbance 405 nm; activity change, negative = inhibition: at 114 µM (top of the series) unless noted", "procedure,_shortened": "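First, TGR (20 nM dispensed) and NADPH were mixed with compound. Second, a 15 min room-temperature incubation followed. Third, further NADPH and then DTNB were added to start the reaction. Finally, TNB absorbance was monitored kinetically.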", "values": [{"compound": "Cc1c(Cl)cccc1-c1ccc(C(=O)Nc2ccc3oc(-c4cccnc4)nc3c2)o1", "Potency": "inconclusive [inhibitor, partial curve]"}, {"compound": "COc1cccc(Cn2c(=O)n(-c3cc(C)cc(C)c3)c(=O)c3oc4ccccc4c32)c1", "activity change, negative = inhibition": "inactive: 2.51%"}, {"compound": "CCC(C)c1ccc(NC(=O)Nc2cnccn2)cc1", "note": "(stereo unspecified)", "activity change, negative = inhibition": "inactive: 8.6%"}, {"compound": "O=C1NN(c2ccccc2)C(=O)/C1=C\\c1ccccc1", "Potency": "inconclusive [inhibitor, full curve]"}, {"compound": "CCCN1C(=O)c2cc(C(=O)Nc3ccc(OC)c(OC)c3)ccc2C1Nc1ccc(OC)c(OC)c1", "note": "(stereo unspecified)", "activity change, negative = inhibition": "inactive: -25.8%"}, {"compound": "C/C=C/C=C/C(=O)N1CC2(CC(c3cccc(NC(=O)/C=C/C)c3)=NO2)C[C@@H]1C(N)=O", "note": "(stereo partly specified)", "Potency": "inconclusive [inhibitor, full curve, poor fit]"}, {"compound": "NC(=O)C(=O)NCCCN1CCOCC1", "activity change, negative = inhibition": "inactive: -2.37%"}, {"compound": "CCN(CC)CCN(C(=O)c1ccc(N2C(=O)CCC2=O)cc1)c1nc2cc3c(cc2s1)OCCO3", "Potency": "active: 44.7 µM"}, {"compound": "O=C(NN1CCOCC1)c1ccc(Cl)s1", "activity change, negative = inhibition": "inactive: -1.41%"}, {"compound": "CN(C(=O)CSc1nc2ccc(NC(=O)c3ccco3)cc2s1)c1ccccc1", "Potency": "inconclusive [inhibitor, partial curve]"}, {"compound": "C#CCNC(=O)C1=C[C@H](c2ccc3c(c2)OCO3)[C@@H](CCCO)[C@H](OCC)O1", "Potency": "active: 44.7 µM"}, {"compound": "COc1ccc(/C=C/C(=O)c2ccccn2)cc1", "Potency": "inconclusive [inhibitor, partial curve]"}, {"compound": "COc1ccc(CN(C)C(=O)c2cc(S(=O)(=O)Nc3ccccc3F)ccc2C)c(OC)c1", "activity change, negative = inhibition": "inactive: -5.45%"}, {"compound": "COc1ccc(N2CCN(CCC(=O)c3ccc4ccccc4c3)CC2)cc1", "Potency": "inconclusive [inhibitor, full curve, poor fit]"}, {"compound": "Cc1c(-c2ccccc2)[n+](=O)c2c(n1[O-])CCCCC2", "activity change, negative = inhibition": "inactive: -6.5%"}, {"compound": "Cc1cccc(CC2S/C(=N/N=C/c3ccco3)N(c3ccccc3)C2=O)c1", "note": "(stereo unspecified)", "Potency": "inconclusive [inhibitor, partial curve]"}, {"compound": "COc1ccc(-c2cc(C(F)(F)F)nc(SCC(=O)NCc3ccco3)n2)cc1OC", "Potency": "active: 44.7 µM"}, {"compound": "Cc1ccc(S(=O)(=O)NCC(=O)NCC(=O)OCc2c(F)cccc2Cl)cc1", "Potency": "inconclusive [inhibitor, full curve]"}, {"compound": "O=C1CC(c2ccccc2)CC(=O)C1CS(=O)(=O)c1ccccc1", "note": "(stereo unspecified)", "Potency": "active: 0.708 µM"}, {"compound": "CCCCN(C)c1nc(-c2ccco2)c2c(c1C#N)CC(C)(C)OC2", "Potency": "active: 2.82 µM"}, {"compound": "CCN(C(=O)C(C)Sc1ccc(S(=O)(=O)N2CCN(C)CC2)cn1)c1ccccc1", "note": "(stereo unspecified)", "Potency": "inconclusive [inhibitor, partial curve]"}]}]}
